Assay results: publication PMC4336329 (PLoS ONE, 2015)
Out of some 310,000 compounds screened, about 14,000 (4.5%) showed an effect of 50% or more. The effect is printed as a negative number. Some of the results follow.

biological target: human ether-à-go-go-related gene (hERG) potassium channel (human, UniProt Q12809); experiment: primary screen, population patch clamp on CHO cells stably expressing hERG
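Further: peak tail current of the secondary pulse compared with the same well before compound.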

Sequence of human ether-à-go-go-related gene (hERG) potassium channel (Q12809 whole entry, looked up): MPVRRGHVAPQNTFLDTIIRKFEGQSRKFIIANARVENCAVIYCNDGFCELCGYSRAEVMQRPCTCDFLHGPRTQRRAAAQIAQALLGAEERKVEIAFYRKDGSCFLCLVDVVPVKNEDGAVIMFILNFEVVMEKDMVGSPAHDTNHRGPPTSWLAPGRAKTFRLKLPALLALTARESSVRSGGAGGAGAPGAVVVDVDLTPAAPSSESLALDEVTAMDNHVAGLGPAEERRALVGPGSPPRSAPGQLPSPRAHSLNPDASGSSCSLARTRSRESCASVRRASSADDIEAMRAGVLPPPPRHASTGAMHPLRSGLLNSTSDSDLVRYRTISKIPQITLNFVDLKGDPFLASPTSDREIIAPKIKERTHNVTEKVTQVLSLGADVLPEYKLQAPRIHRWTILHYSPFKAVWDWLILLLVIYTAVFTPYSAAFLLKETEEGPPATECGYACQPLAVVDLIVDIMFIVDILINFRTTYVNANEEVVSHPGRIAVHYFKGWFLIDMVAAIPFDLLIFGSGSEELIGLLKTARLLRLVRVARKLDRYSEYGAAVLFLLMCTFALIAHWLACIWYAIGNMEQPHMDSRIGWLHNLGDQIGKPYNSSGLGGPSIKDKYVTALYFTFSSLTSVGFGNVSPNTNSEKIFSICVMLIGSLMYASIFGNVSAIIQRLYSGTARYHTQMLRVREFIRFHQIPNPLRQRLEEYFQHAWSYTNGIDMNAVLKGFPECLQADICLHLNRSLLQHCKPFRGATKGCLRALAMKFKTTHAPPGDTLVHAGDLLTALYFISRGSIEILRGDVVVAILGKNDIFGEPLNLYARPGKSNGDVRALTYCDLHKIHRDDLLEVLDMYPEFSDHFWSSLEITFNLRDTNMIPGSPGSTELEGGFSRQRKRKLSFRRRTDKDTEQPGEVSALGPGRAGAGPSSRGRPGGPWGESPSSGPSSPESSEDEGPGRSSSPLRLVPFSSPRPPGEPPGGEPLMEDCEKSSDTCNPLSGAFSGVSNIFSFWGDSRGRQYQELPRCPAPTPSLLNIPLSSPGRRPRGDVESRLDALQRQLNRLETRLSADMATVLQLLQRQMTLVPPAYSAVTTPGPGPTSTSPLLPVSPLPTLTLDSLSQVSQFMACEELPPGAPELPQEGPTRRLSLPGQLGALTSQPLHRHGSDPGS

| SMILES | hERG current change (%, negative = inhibition) at 10uM [%] |
| --- | --- |
| Cc1ccccc1NC(=O)CCC(=O)OCC(=O)c1cccc([N+](=O)[O-])c1 | 8.03 |
| COC(=O)c1c(C(C)=O)c(C)n(C)c1C | 7.34 |
| COc1ccc(CCNc2ccc([N+](=O)[O-])cn2)cc1 | -12.3 |
| CCCCn1c(NS(=O)(=O)c2ccc(C)cc2)c(S(=O)(=O)c2ccccc2)c2nc3ccccc3nc21 | 4 |
| CC(C)(Nc1ccccc1)C(=O)c1ccccc1 | -6.13 |
| CCc1ccccc1NC(=O)C1CCCN1C(=O)NCc1ccccc1 (stereo not shown) | 15 |
| CNc1ncc(C(=O)c2ccc(-c3ccccc3)cc2)s1 | 13.1 |
| O=C(CSc1ccc(-c2ccccn2)nn1)NCc1ccc(Cl)cc1 | -10.9 |
| COc1ccc2nc(C)cc(SCC(=O)N/N=C/c3ccco3)c2c1 | -5.39 |
| COc1ccc(C2N(c3ccc(F)cc3)C(=O)C3CCCN32)cc1 (stereo not shown) | -9.09 |
| Cl.N=c1sccn1CC(=O)Nc1cccc(Oc2ccccc2)c1 | -65.5 |
| CCCC(=O)N1CCN(Cc2nc3cc([N+](=O)[O-])ccc3n2C)CC1 | -36.8 |
| N#CCN=C(c1ccccc1)c1ccccc1 | -7.38 |
| Cc1occc1C(=O)n1nnc2ccccc21 | -7.48 |
| COC(=O)c1c(NC(=O)C(C)C)sc2c1CCN(Cc1ccccc1)C2.Cl | -38.4 |
| Cc1nc(C(C)NC(=O)CCc2nnc(Cc3c[nH]c4ccccc34)o2)cs1 (stereo not shown) | 30.4 |
| COc1ccc(CNC(=O)CNC(=O)c2ccc(C(C)(C)C)cc2)cc1OC | 16.7 |
| CC(SCC(=O)NC(C)C1CC2CCC1C2)C(=O)O (stereo not shown) | -2.95 |
| COc1ccccc1/C=C/C(=O)NC(=S)NCC1CCCO1 (stereo not shown) | -1.48 |
| COc1ccc(CCNC(=O)CCN2C(=O)COc3ccccc32)cc1OC | 6 |
| COc1cc(/C=C2\N=C3CCCCCN3C2=O)ccc1O | 2.47 |
| Cc1ccc(NC2=C(N3CCCCC3)C(=O)c3ccccc3C2=O)cc1 | 10.4 |
| COc1cccc(C2=CC(c3ccc(OC)c(OC)c3OC)n3nnnc3N2)c1 (stereo not shown) | 8.25 |

| SMILES | hERG current change (%, negative = inhibition) at 10uM [%] |
| --- | --- |
| CCN(CC)CCOC(=O)C(Cc1cccc2ccccc12)CC1CCCO1.O=C(O)C(=O)O (stereo not shown) | -53.8 |
| O=C(OCn1nnc2ccccc2c1=O)c1ccc(Br)o1 | 2.25 |
| Cc1cc(OCC(=O)NCc2ccncc2)ccc1Cl | 5.34 |
| COc1ccccc1CNC(=O)C(CC(C)C)NC(=O)C1CCC(C)CC1 (stereo not shown) | 4.27 |
| CCCCOc1ccc(/C=C/C(=O)OCC(=O)NC(=O)NCC(C)C)cc1OCC | -0.62 |
| O=C(Nc1cccc(C(F)(F)F)c1)C1CCN(S(=O)(=O)c2cccnc2)CC1 | -33.2 |
| C/C(=C\c1ccccc1)CN1CCN(C)CC1 | 16.2 |
| CC(=O)c1cc(C(=O)Nc2ccc(C(=O)O)cc2)oc1C | 18.1 |
| CCN(CC)C(=O)C(=O)c1cn(CC(=O)NCc2ccc3c(c2)OCO3)c2ccccc12 | 0.489 |
| C/C(Cn1nc([N+](=O)[O-])cc1C)=N\NC(=O)c1ccc(O)cc1O | 18.7 |
| Cc1cccc(CSc2nnc(-c3ccco3)n2C)c1 | -10.8 |
| CCCc1cc(C(=O)Cc2ccccn2)c(O)cc1O | 5.95 |
| O=C1c2ccccc2C(=O)c2c1cccc2N(CCO)CCO | -6.82 |
| CSC1=NCCN1C(=O)Cc1ccc(Cl)cc1 | 2.51 |
| COc1ccc(CCC(=O)NNC(=S)Nc2cccc(C(C)=O)c2)cc1 | 17.4 |
| CCn1cc(C(=O)OCC(=O)N(C)Cc2ccccc2)c(=O)c2ccc(C)nc21 | -11.1 |
| COc1ccc(/C=N\Nc2ccccn2)c(OC)c1 | 12.5 |
| O=C(COc1ccccc1Cl)NCCCNC(=O)c1cnccn1 | 5.28 |
| C#CC[N+](CC)(CC)CC#Cc1cccc(Cl)c1.[Br-] | -0.889 |
| CCOC(=O)n1c(=O)n(Cc2ccccc2C)c2ccccc21 | -13.6 |
| CCc1ccccc1NC(=O)c1ccoc1C | 2.35 |
| CCOC(=O)c1cc(NC(=O)c2ccc(C)cc2)c(=O)oc1C(F)(F)F | -2.5 |
| CCc1nc(SCC(=O)Nc2ccc(N(C)C)cc2)c2ccccc2n1 | 1.86 |

| SMILES | hERG current change (%, negative = inhibition) at 10uM [%] |
| --- | --- |
| CC1CCCC(C)N1CCCNC(=O)Cn1c(=O)c2cccn2c2cccnc21 (stereo not shown) | 2.77 |
| Cc1ccc(OCC(=O)Nc2ccc3c(c2)nc(CCN2CCCCC2)n3C)cc1 | -82.3 |
| CC(C)CCN1C(=O)C2(OCCCO2)c2cc(Cl)ccc21 | 22.2 |
| COc1ccccc1CNC(=O)C(=O)NCC1OCCN1S(=O)(=O)c1cccs1 (stereo not shown) | -14 |
| CCOC(=O)C1CCCN(Cc2ccc3c(c2)OCO3)C1 (stereo not shown) | -9.12 |
| Cc1cccc(C(=O)Nc2ccc(S(=O)(=O)Nc3nc(C)cc(C)n3)cc2)c1 | 1.72 |
| CCCn1cc(CN2CCCC(C(=O)c3cccc(OC)c3)C2)c(C)n1 (stereo not shown) | -51 |
| CCOC(=O)C1CCN(CC(C)(C)NS(=O)(=O)c2ccc(C)cc2)CC1 | -4.95 |
| CC1(C)Nc2ccccc2N(CCC(=O)N2CCOCC2)C1=O | 6.16 |
| O=C(COC(=O)c1cc(=O)[nH]c2ccccc12)Nc1nc(-c2ccccc2)cs1 | -1.24 |
| CCNC(=O)CN1C(=O)NC2(CCCc3cc(OC)ccc32)C1=O (stereo not shown) | -1.29 |
| Cc1ccc2c(CSc3nnc(C4CC4)n3N)cc(=O)oc2c1 | -2.45 |
| Cc1cccc(NS(=O)(=O)c2csc(C(N)=O)c2)c1 | 8.92 |
| O=C(Nc1ccc(S(=O)(=O)Nc2ccc(Cl)cc2)cc1)C1CCCO1 (stereo not shown) | -2.51 |
| Cc1sc2ncnc(N3CCC(C(=O)Nc4ccc(Cl)cc4Cl)CC3)c2c1C | -7.65 |
| CCCn1nnnc1NCc1cccn1C | -7.04 |
| COc1ccccc1CN1C[C@@H]2C[C@@H](c3cccc(O)c3)N3CCC[C@@]23C1=O | -33.6 |
| O=C(NCCc1ccccc1)c1ccc(Cl)c(S(=O)(=O)N2CCCC2)c1 | -23.1 |
| CCOC(=O)c1oc2ccc(Br)cc2c1CSc1nnc(C)s1 | 14 |
| Cc1cc(N/N=C/c2cccc(Cl)c2)nc(NCc2ccccc2)n1 | -7.24 |
| O=C(c1cc([N+](=O)[O-])ccc1Cl)N1CCN(Cc2ccc3c(c2)OCO3)CC1 | -16.6 |
| Cc1ccn(CC(C)C(=O)O)n1 (stereo not shown) | 10.3 |
| O=[N+]([O-])c1ccccc1S(=O)(=O)Nc1cccc(-c2ccc3nncn3n2)c1 | -16.2 |

| SMILES | hERG current change (%, negative = inhibition) at 10uM [%] |
| --- | --- |
| CCOC(=O)c1sc(NC(=O)CSc2nc(-c3ccco3)cc(C(F)(F)F)n2)c(C#N)c1C | -4.12 |
| O=C(N/N=C/c1cc2c(cc1Br)OCO2)C1COc2ccccc2O1 (stereo not shown) | 9.94 |
| CCN1C(=O)CSC1=NC1C2CC3CC(C2)CC1C3 (stereo not shown) | 11.5 |
| CCc1ccc(OCCCC(=O)Nc2nccs2)cc1 | 25.2 |
| COc1ccc(NC(=S)NCCCN2CCN(C3CCCCC3)CC2)cc1 | -47.7 |
| C/C(=N\OCc1nc2ccccc2c(=O)n1/N=C/c1cc(C)cc([N+](=O)[O-])c1O)c1ccccc1 | -7.33 |
| CCOC(=O)Cc1nnc(Nc2ccc(C(=O)NC)cc2)c2ccccc12 | 10.6 |
| Cc1cccc(N2CCN(C(=O)c3ccc(CS(=O)(=O)c4ccccc4C)o3)CC2C)c1 (stereo not shown) | -32 |
| COC(=O)CCC(=O)NNC(=O)c1cccc(Cl)c1 | 16.4 |
| Cc1ccc(S(=O)(=O)Nc2cccc(Oc3cnccn3)c2)cc1 | 9.22 |
| COc1ccc(C(=O)Nc2ccc(NC(=O)C3CC3)cn2)cc1 | 4.49 |
| Cc1ccc(NS(=O)(=O)c2cccc(C(=O)n3ncc(C#N)c3N)c2)c(C)c1 | -4.88 |
| COc1ccc(CNC(=O)c2ccc3c(c2)N(C)C(=O)CS3=O)cc1 (stereo not shown) | 4.89 |
| CCn1c(SCC(=O)Nc2ccccc2Br)nnc1-c1cnccn1 | -24 |
| O=C(Nn1c(C2CCC2)nc2ccccc2c1=O)C1CCC1 | -3.6 |
| Cc1cc(C(=O)N2CCN(Cc3ccccc3)CC2)on1 | -14.4 |
| Cc1n[nH]c(=O)nc1NCc1ccccc1 | -4.9 |
| COc1ccc(OC)c(NC(=O)c2ccccc2N(C)S(=O)(=O)c2ccc(C)cc2)c1 | -9.39 |
| O=C(/C=C/c1c(Cl)cccc1Cl)NCc1ccccc1 | 14.3 |
| COc1ccc(/C=C/C(=O)c2c(O)n(CCC3=CCCCC3)c(=O)[nH]c2=O)cc1OC | 6.71 |
| Cc1ccc(C(=O)NC(C)c2ccc3c(c2)OCO3)s1 (stereo not shown) | -24.1 |
| CCOP(=O)(OCC)C(Nc1cccc(C(F)(F)F)c1)c1ccc(F)cc1 (stereo not shown) | -19.5 |
